Results from PubChem BioAssay AID686978 (National Center for Advancing Translational Sciences (NCATS), 2013).
Screen size: about 420,000 compounds; about 64,000 (15%) were called active. Inconclusive results, whose numbers are uncertain, are shown with a selection of clear calls. The call rests on the fitted dose curve; in most records, active means well fitted inhibition curve with a large enough effect; inconclusive means small, poorly fitted or top-dose-only effect; inactive means flat fitted curve, though single readings scatter. Potencies of inconclusive entries are left out as doubtful fits.

Test: qHTS for Inhibitors of human tyrosyl-DNA phosphodiesterase 1 (TDP1): qHTS in cells in absence of CPT; further: nearly all actives have a fitted effect of over 55% in size
Conditions: DT40 Tdp1-/- hTDP1 cells, no CPT, ATP luminescence, 48 h; activity change, negative = growth inhibition: at 46.2 µM (top of the series) unless noted
Procedure, shortened: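 Stably hTDP1-transfected Tdp1-null chicken DT40 cells were treated with library compounds minus camptothecin and grown for at least 48 hr at 37 °C, after which cellular ATP was quantified by luminescence.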
On the % scale 0 is the no-effect control and ±100 the full control effect; potency means the concentration at half of the fitted maximal effect; tags describe the fitted curve by direction and shape.

With C=CCn1c(SC)nnc1-c1cccc([N+](=O)[O-])c1 as the molecule, how does the Potency read?
The Potency was “inactive”.

For CCOc1ccc(/C=N/NC(=S)NC2CC3C=CC2C3)cc1 (stereo not given), which Potency is on record?
The Potency was inconclusive [inhibitor, single point].

For COc1ccc(-c2cccc(-c3cc(=O)oc4cc(OC)cc(OC)c34)c2)cc1, which Potency is on record?
Its Potency is active: 0.651 µM.

Which Potency does the source give for CCCOc1ccc(/C=C/C(=O)Nc2ccc([N+](=O)[O-])cc2C)cc1OC here?
The Potency was inconclusive [inhibitor, partial curve].

Which Potency does the source give for CCn1nc(C)c(NC(=O)c2cnn3c(C(F)F)cc(-c4ccccc4)nc23)c1C here?
Its Potency is inconclusive [inhibitor, single point].

Which Potency does the source give for CC1=C/C(=C\c2ccc3c(c2)OCO3)C(=O)S1 here?
The Potency was “inactive”.

Which Potency does the source give for NS(=O)(=O)c1cc(C(=O)OCC(=O)Nc2ccc3[nH]c(=O)[nH]c3c2)ccc1Cl here?
The Potency was “inactive”.

With O=C(Cc1sc(-c2ccccc2)nc1-c1ccccc1)Nc1ccccc1 as the molecule, how does the Potency read?
The Potency was inconclusive [inhibitor, single point].

Which Potency does the source give for Cc1ccc(-c2cc(C(F)F)n3ncc(C(=O)NN4CCCCC4)c3n2)cc1 here?
The Potency was active: 23.1 µM.

For O=C(Nc1nc(-c2cc(Cl)sc2Cl)cs1)c1ccccc1, which Potency is on record?
Its Potency is inconclusive [inhibitor, single point].

With Cc1onc(-c2ccccc2Cl)c1C(=O)Nc1ccccc1C(N)=O as the molecule, how does the Potency read?
Its Potency is inconclusive [inhibitor, single point].

With Cc1ccccc1Cn1cc(S(=O)(=O)c2ccc(Cl)cc2)c(=O)c2cc3c(cc21)OCO3 as the molecule, how does the Potency read?
The Potency was inconclusive [inhibitor, partial curve, poor fit].

For C=CCn1c(SCC(=O)Nc2ccc(N(C)C)cc2)nnc1-c1cccc(C)c1, which activity change, negative = growth inhibition is on record?
Its activity change, negative = growth inhibition is inconclusive: -32.9% [inhibitor].

With O=c1c(O)c(-c2cccs2)oc2ccc(Cl)cc12 as the molecule, how does the Potency read?
The Potency was inconclusive [inhibitor, partial curve].

For Cc1nnc(NC(=O)CSc2nccn2C)s1, which Potency is on record?
The Potency was “inactive”.

For CN1CCC2(CC1)N=C(c1ccc(F)cc1)C(=S)N2C(=O)c1ccccc1, which Potency is on record?
The Potency was active: 11.6 µM.

Which Potency does the source give for CC(=O)c1cccc(NC(=O)CN2C(=O)NC(C)(c3ccc4c(c3)OCCCO4)C2=O)c1 (stereo not given) here?
Its Potency is inconclusive [inhibitor, single point].

With CCOc1ccc2cc(C3CC(c4ccco4)=NN3S(=O)(=O)c3ccccc3)c(Cl)nc2c1 (stereo not given) as the molecule, how does the Potency read?
The Potency was inconclusive [inhibitor, single point].

Which Potency does the source give for CCOC(=O)c1ccc(N2CCN(C(=O)c3ccccc3)CC2)c(NC(=O)c2ccco2)c1 here?
The Potency was inconclusive [inhibitor, partial curve].

Which Potency does the source give for COC(=O)c1ccccc1NC(=O)c1nc2nc(C)cc(C)n2n1 here?
The Potency was inconclusive [inhibitor, single point].

For CCCCCCOC(=O)C[N+](C)(C)CCOC1CC2CCC1(C)C2(C)C (stereo not given), which Potency is on record?
Its Potency is inconclusive [inhibitor, single point].

For COc1ccc(CN(C(=O)c2snc(C(N)=O)c2N)C(CC(C)C)C(=O)NC2CCCCC2)cc1 (stereo not given), which Potency is on record?
The Potency was inconclusive [inhibitor, single point].

Which Potency does the source give for COCCC(=O)N1CCC(Oc2ccc(C(=O)N3C[C@@H]4CCC[C@H]3C4)cc2)CC1 here?
The Potency was “inactive”.

Which activity change, negative = growth inhibition does the source give for N#C/C(=C\c1cccs1)C(=O)c1ccccc1 here?
Its activity change, negative = growth inhibition is inconclusive: -31.9% [inhibitor].

Which Potency does the source give for CN(CC(=O)Nc1ccc(Cl)cc1)CC(=O)Nc1cccc2ccccc12 here?
Its Potency is inconclusive [inhibitor, single point].

With COc1cccc(N2CCN(C(=O)C3CCCN(S(=O)(=O)c4ccc(Br)s4)C3)CC2)c1 (stereo not given) as the molecule, how does the Potency read?
The Potency was inconclusive [inhibitor, single point].

For Cc1c(NC(=O)c2nc3ccccc3n(C)c2=O)cccc1[N+](=O)[O-], which Potency is on record?
Its Potency is inconclusive [inhibitor, single point].

Which Potency does the source give for COc1cccc(-c2oc3c(c2-c2ccc(Br)nc2)C(O)CCC3)c1 (stereo not given) here?
The Potency was “inactive”.

For O=C(Nc1ccncc1)c1cc2ccccc2cc1O, which Potency is on record?
Its Potency is active: 11.6 µM.

For O=S(=O)(c1ccc(F)cc1)N1CCN(c2ncnc3c2cnn3-c2ccccc2)CC1, which Potency is on record?
The Potency was inconclusive [inhibitor, single point].

For O=Cc1ccc(OCc2cn(CC(=O)c3ccc(O)cc3)nn2)cc1, which Potency is on record?
Its Potency is “inactive”.

For CCOC(=O)C1(Cc2ccccc2)CCCN(C(=O)C=C(C)C)C1 (stereo not given), which Potency is on record?
The Potency was “inactive”.

Which Potency does the source give for COc1ccc(CN(Cc2cccn2C)S(=O)(=O)c2cccc(C(F)(F)F)c2)cc1 here?
The Potency was inconclusive [inhibitor, single point].

For CC(C)n1cc(CN2CCCC(CNS(=O)(=O)c3cccc4cccnc34)C2)cn1 (stereo not given), which Potency is on record?
The Potency was “inactive”.

Which Potency does the source give for Cc1cc(N2CCCC2)c(F)cc1/C=C\[N+](=O)[O-] here?
The Potency was inconclusive [inhibitor, single point].

For Cc1ccc(Cn2c(=O)n(CCCCC(=O)NCCc3ccc(Cl)cc3)c(=O)c3ccccc32)cc1, which Potency is on record?
The Potency was inconclusive [inhibitor, partial curve].

Which Potency does the source give for O=C(CN1CCCCCCC1)Nc1ccc(Cl)cc1Cl here?
The Potency was inconclusive [inhibitor, single point].

For COc1ccc(NC(=O)CN(C)C(=O)c2ccc(-c3cccc(C(F)(F)F)c3)o2)cc1, which Potency is on record?
The Potency was inconclusive [inhibitor, single point].

For CCn1cc[n+](C)c1P(c1ccccc1)c1ccccc1, which Potency is on record?
Its Potency is active: 0.013 µM.

For O=C(C=Cc1ccccc1Cl)c1ccccc1, which Potency is on record?
The Potency was active: 16.4 µM.

For Cc1ccc(S(=O)(=O)NCCCNS(=O)(=O)c2ccccc2Br)cc1, which Potency is on record?
Its Potency is inconclusive [inhibitor, single point].

Which Potency does the source give for CC(C)(C)NC(=O)c1cccc(NC(=O)c2ccc3c(c2)C(=O)N(C(C)(C)C)C3=O)c1 here?
Its Potency is active: 10.3 µM.

With Nc1ccc(C(=O)OCCc2ccccc2)cc1 as the molecule, how does the Potency read?
The Potency was inconclusive [inhibitor, single point].

For COc1cccc(CNC(=O)CCCCCNC(=O)N2CCn3c2nc2ccccc23)c1, which Potency is on record?
The Potency was “inactive”.

With COc1ccc(/C=C/c2nnc(NC(=O)CSc3ccc(C)cc3)s2)cc1 as the molecule, how does the Potency read?
Its Potency is inconclusive [inhibitor, partial curve].

For COc1cc(C(=O)NCC2CCCO2)ccc1OCc1ccccc1Cl (stereo not given), which Potency is on record?
The Potency was inconclusive [inhibitor, single point].

Which Potency does the source give for Cc1c(C(=O)Nc2ccccc2-c2ccccc2)cccc1[N+](=O)[O-] here?
Its Potency is inconclusive [inhibitor, single point].

With COc1cc(-c2nc(-c3cccnc3)no2)cc(OC)c1OC as the molecule, how does the Potency read?
The Potency was inconclusive [inhibitor, single point].

Which Potency does the source give for COc1ccc(Cl)cc1CC=NNC(=O)c1ccncc1 here?
The Potency was active: 11.6 µM.

Which Potency does the source give for COc1ccc(S(=O)(=O)N(CC(=O)NCC2CCCO2)Cc2ccccc2)cc1C (stereo not given) here?
The Potency was “inactive”.

Which Potency does the source give for CC1=C(C(=O)N(C)C)CC(CC(=O)NCc2cccc3ccccc23)C(=O)N1Cc1ccccc1 (stereo not given) here?
Its Potency is inconclusive [inhibitor, partial curve].

With Cn1c(=O)c2c(n3c4ccccc4nc13)NC(=O)CC2c1ccccc1F (stereo not given) as the molecule, how does the Potency read?
Its Potency is inconclusive [inhibitor, partial curve].

Which activity change, negative = growth inhibition does the source give for CCOC(=O)c1c(C)n2c3c(cc(C)cc13)CCC2 here?
Its activity change, negative = growth inhibition is inconclusive: -30.8% [inhibitor].

Which Potency does the source give for O=C(Nc1ccc2c(c1)CCC2)c1cccc(S(=O)(=O)N2CCN(c3ccc(F)cc3)CC2)c1 here?
The Potency was inconclusive [inhibitor, partial curve].

With COc1ccc(O)c(-c2[nH]ncc2C(=O)c2ccccc2)c1 as the molecule, how does the Potency read?
Its Potency is “inactive”.

Which Potency does the source give for Cc1cc(C)cc(OCC(=O)NCC(c2ccc(Cl)cc2)N2CCCCC2)c1 (stereo not given) here?
The Potency was active: 16.4 µM.

With COc1cc(NC(=O)COC(=O)/C=C/c2ccc(OC)c(OC)c2)cc(OC)c1 as the molecule, how does the Potency read?
Its Potency is inconclusive [inhibitor, single point].

Which Potency does the source give for Cn1c(=O)c2c(SCC(=O)Nc3nccs3)nc(C3CC3)nc2n(C)c1=O here?
Its Potency is active: 18.4 µM.

For COCC(=O)N1CCC2(CCCN(c3ccc(-c4ccccc4)cc3)C2)CC1, which Potency is on record?
Its Potency is inconclusive [inhibitor, single point].

For COc1ccc(S(=O)(=O)N2CCN(c3ccc(F)cc3)CC2)cc1-c1noc(C)n1, which Potency is on record?
The Potency was “inactive”.

Which Potency does the source give for COc1c(C(=O)Nc2ccc3[nH]c(=O)[nH]c3c2)cc2ccccc2c1Br here?
Its Potency is inconclusive [inhibitor, partial curve].

With Cc1ccccc1NC(=S)NCc1ccc2[nH]c3c(c2c1)CCCC3 as the molecule, how does the Potency read?
Its Potency is active: 20.6 µM.

For CC(=O)NCCc1ccc(S(=O)(=O)N2CCN(c3nc(-c4ccccc4)c(C)s3)CC2)cc1, which Potency is on record?
The Potency was “inactive”.

For Cc1ccc(S(=O)(=O)N2CCOCC2)cc1NC(=O)CSc1nc2ccccc2c(=O)n1Cc1ccccc1, which Potency is on record?
The Potency was inconclusive [inhibitor, partial curve, poor fit].

With Cc1ccc2c(ccc[n+]2CC(=O)c2ccccc2)c1 as the molecule, how does the Potency read?
Its Potency is “inactive”.

With Cc1ccc(/C=C2/N=C(c3ccccc3)NNC2=O)cc1 as the molecule, how does the Potency read?
The Potency was inconclusive [inhibitor, single point].

With COc1ccc2sc(-c3ccccc3OC)c(C#CCCO)c2c1 as the molecule, how does the Potency read?
The Potency was inconclusive [inhibitor, single point].

Which Potency does the source give for CCOCCc1nnc(NC(=O)CCS(=O)(=O)c2ccccc2)s1 here?
Its Potency is active: 9.2 µM.

With CCN(CC)S(=O)(=O)c1ccc(Cl)c(NC(=O)COC(=O)c2ccc(O)cc2)c1 as the molecule, how does the Potency read?
The Potency was inconclusive [inhibitor, single point].

With COc1ccc(CCNC(=O)Cn2c(=O)n(-c3ccc(F)cc3F)c(=O)c3sccc32)cc1OC as the molecule, how does the Potency read?
The Potency was inconclusive [inhibitor, partial curve].
